# Assay results from PubChem BioAssay AID1347417 (National Center for Advancing Translational Sciences (NCATS), 2020).
# The whole screen tested about 120,000 compounds, of which about 5,300 (4.4%) were called active. The inconclusive results got no clear call from the source; some entries with a clear call stand among them for comparison. Calls come from the whole dose curve; as a rule, active = well fitted inhibition curve with a large enough effect; inconclusive = small, poorly fitted or top-dose-only effect; inactive = no such curve, though single readings can be large or run the other way. Potencies beside an inconclusive call are fits to weak or partial responses and may not hold up.
# Assay: qHTS Primary assay for Inhibitors of Plasmodium falciparum Dd2 growth in vitro; note: nearly all actives have a fitted effect of over 65% in size;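 for activity, negative = inhibition: plate controls were DMSO vehicle for no effect and reference drug for full effect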
# Conditions: P. falciparum Dd2 growth, SYBR Green, 72 h; activity, negative = inhibition: at 28.9 µM (top of the series) unless noted; series mostly up to 28.9 µM
# In short: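 Infected erythrocytes (Dd2, 0.3% parasitemia, 2.5% hematocrit final) are added to compound in RPMI-1640/Albumax II medium, grown 72 h at 37C in low oxygen, then lysed with saponin/Triton-X containing SYBR Green and read by fluorescence.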
# Potency is the fitted concentration of half-maximal effect; tags give direction and shape of the fitted curve.
Structure (SMILES),"activity, negative = inhibition",Potency,outcome
CCOC(=O)C1CCC(CN(Cc2ccc(OC)cc2)S(=O)(=O)c2ccc(F)c(C(=O)Nc3c(C)cccc3C)c2)CC1 (stereo not drawn),inactive: 4.57%,–,–
Cc1ccccc1Nc1c(-c2ccccc2)nc2cccc(C)n12,–,"inconclusive: 17.8 µM [inhibitor, single point]",–
O=C(N[C@H]1CCN2C(=O)c3cc(-c4ccsc4)ccc3NC(=O)[C@H]12)c1cccs1,–,"inconclusive: 10 µM [inhibitor, partial curve, poor fit]",–
Cc1cccc(Cn2c(SCc3ccc(C(=O)NC4CCCC4)cc3)nc3ccncc32)c1,–,"inconclusive: 17.8 µM [inhibitor, single point]",–
CCN(CC)S(=O)(=O)c1ccc2c(c1)N(CC(=O)NCCCN1CCN(c3cc(Cl)ccc3C)CC1)C(=O)CO2,–,"inconclusive: 8.91 µM [inhibitor, partial curve, poor fit]",–
COc1ccc(NC(=O)Cn2c(=O)n(-c3ccccc3)c(=O)c3c2cc(C)n3C)cc1OC,inactive: 41.1%,–,–
Cc1ccc(NC(=O)c2sc(-n3nc(C)c(Cc4ccc5c(c4)OCO5)c3C)nc2C)cc1Cl,inactive: -18.9%,–,–
Cc1cn(CC(=O)N2CC[C@@](C)(O)[C@@H](Cc3ccccc3)C2)c(=O)[nH]c1=O,inactive: -3.98%,–,–
CCOc1ccc(NC(=O)CCc2c(C)nc3cc(-c4ccc(Cl)cc4)nn3c2C)cc1,–,"inconclusive: 0.316 µM [inhibitor, full curve, poor fit]",–
c1cc2nc(C3CCCCC3)[nH]c2cn1,–,"inconclusive: 28.2 µM [inhibitor, single point]",–
CCOCC(=O)N1CC2CC(C1)[C@H]1CCCC(=O)N1C2 (stereo partly drawn),inactive: -15.8%,–,–
Oc1ccc(NCc2ccc(OCc3ccccc3)cc2)cc1,–,"inconclusive: 10 µM [inhibitor, partial curve]",–
Cc1cccc(N2CCN(C(=O)c3noc(-c4ccc[nH]c4=O)n3)CC2)c1C,–,"inconclusive: 3.98 µM [inhibitor, single point]",–
CCOc1ccc(CC(=O)N2CCc3cc(OC)c(OC)cc3C2COc2ccc3c(C)cc(=O)oc3c2)cc1 (stereo not drawn),–,active: 3.98 µM,–
CCCn1cnc2cc(NCc3ccc(OC)cc3OC)ccc21,–,"inconclusive: 8.91 µM [inhibitor, partial curve, poor fit]",–
COc1ccc(CN2CCOCCNC(=O)CC2)cc1Cc1c(C)noc1C,inactive: -23.7%,–,–
O=C(NCc1cccs1)c1nc(-c2cccnc2)c2cnccn12,–,active: 11.2 µM,–
CC[C@H]1CN2CC[C@H]1C[C@@H]2CNS(=O)(=O)c1cccs1,inactive: -5.4% [at 44.1 µM],–,–
COc1ccc(CNCc2c(C(=O)O)n(Cc3ccc(F)cc3)c3cc(C)ccc23)cc1OC,–,"inconclusive: 8.91 µM [inhibitor, partial curve, poor fit]",–
CCOCCCNC(=O)c1ccc(-n2c(-c3ccccc3)cc3c2CCCCC3)cc1,–,"inconclusive: 10 µM [inhibitor, single point]",–
CCC(=O)N1CCc2cc(Br)cc(S(=O)(=O)CCC(=O)Nc3cccc(C)c3C)c21,inactive: -1.83%,–,–
COc1ccc(C(=O)N2CCc3ccc(C(=O)NCC(C)C)cc32)cc1,inactive: -10.3%,–,–

Structure (SMILES),"activity, negative = inhibition",Potency,outcome
CCOC(=O)c1c(NC(C)=O)c2c3c(sc2n1Cc1nc(-c2ccccc2Cl)oc1C)CCCC3,–,"inconclusive: 10 µM [inhibitor, partial curve, poor fit]",–
COc1ccc(-n2cc(CN3CCCN(C)CC3)c(-c3cccc(F)c3)n2)cc1,–,"inconclusive: 2.51 µM [inhibitor, full curve, poor fit]",–
CCn1nccc1C(=O)N1CC(c2nc(CCOc3cccc(C)c3)no2)C1,–,"inconclusive: 17.8 µM [inhibitor, single point]",–
CC1CCN(S(=O)(=O)c2ccc3c(c2)oc(=O)n3CC(=O)O)CC1,inactive: 21.8%,–,–
COc1ccc(CC(=O)Nc2ccc3nc(N4CCCCC4)cc(C)c3c2)cc1,–,"inconclusive: 11.2 µM [inhibitor, single point]",–
COc1ccc(-n2nc3n(c2=O)CCN(Cc2cccnc2)C3)cc1,–,"inconclusive: 10 µM [inhibitor, single point]",–
COCCC(=O)NC[C@@H]1C=C(C)[C@H](CC(=O)N(C)Cc2ccccc2)C[C@H]1C(C)C,inactive: -60.8% [at 44.1 µM],–,–
O=C(C1CCCCC1)N1CC[C@H](c2nnc(-c3ccncc3)o2)C1,–,"inconclusive: 5.01 µM [inhibitor, single point]",–
Cc1ccc(OCC(=O)Nc2nonc2-c2ccc(Br)cc2)cc1,–,–,inactive
COc1ccc(N2CCN(C(c3ccc(F)cc3)c3sc4nc(-c5ccco5)nn4c3O)CC2)cc1 (stereo not drawn),inactive: 22%,–,–
Cc1ccc(S(=O)(=O)N(CC(=O)NCCSc2ccc(Cl)cc2)c2cccc(Cl)c2)cc1,–,–,inactive
O=C(CCC1CCN(S(=O)(=O)c2ccccc2)CC1)NCCc1ccccc1,–,"inconclusive: 20 µM [inhibitor, single point]",–
Cc1ccccc1CN1CCC(CN(Cc2cccnc2)C(=O)Cc2ccccc2)CC1,–,"inconclusive: 12.6 µM [inhibitor, partial curve]",–
Cc1ccc(S(=O)(=O)CCC(=O)N2CCN(c3nc4c(C)c(C)ccc4s3)CC2)cc1,inactive: 42.4%,–,–
O=C(Nc1ccccc1)c1ccc2c(c1)OCCN(c1ccccc1)C2,–,"inconclusive: 4.47 µM [inhibitor, partial curve, poor fit]",–
CN(C)c1ccc(C(=O)N2CCC3(CC2)c2nccn2-c2ccccc2CN3C)cc1,inactive: 14.5% [at 5.79 µM],–,–
C#Cc1cccc(C(=O)N2CCC(Cc3ccc(Cl)cc3)(C(=O)OCC)CC2)c1,–,"inconclusive: 17.8 µM [inhibitor, single point]",–
Clc1ccc(-c2ccc(CN3CC[C@H]4CC[C@@H](C3)N4)o2)cc1,–,"inconclusive: 1.41 µM [inhibitor, full curve]",–
Cc1ccc(C(=O)N2CCC3(CC2)N=C(c2cccc(Br)c2)NO3)cc1,inactive: -7.63%,–,–
CCCn1cc(S(=O)(=O)c2cccc(Cl)c2)c(=O)c2cc(F)c(N3CCCC3)cc21,–,"inconclusive: 11.2 µM [inhibitor, single point]",–
COc1ccc(CN[C@@H]2CCC[C@@H](C(=O)N(C)Cc3cccnc3)CC(=O)N(C)C2)cc1,–,"inconclusive: 11.2 µM [inhibitor, single point]",–
